The RNAGym collection of RNA variant scans (doi:10.1093/nar/gkz1192)
Read counts are not given, so values of variants with three or more changes are uncertain.

B1: CPEB3 Ribozyme (parent)
chain: UAACAGGGGGCCACAGCAGAAGCGUUCACGUCGCAGCCCCUGUCAGAUUCUGGUGAAUCUGCGAAUUCUGCUGUAUAUCUC

Variants of: B1
Assay: self-cleavage, relative activity (ratio to wild type); higher = more cleavage; in vitro, sequencing
Outline: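 Relative activity compares each variant's cleaved/total read fraction with that of the unmutated ribozyme. To get these fractions, barcoded CPEB3 ribozyme libraries from rounds of error-prone PCR were transcribed with T7 RNA polymerase for 5 hours at 37°C and then given 15 min of DNase I treatment before EDTA was added. The RNAs were reverse transcribed with template switching and sequenced on Illumina, and DNA sequencing linked barcodes to variants. A minimum of 5 reads applied, and three batches were averaged.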

Variant | self-cleavage
UAACAGGUGGCCACAGCAGAAGCGUUCGCGUCGCAGCCCCUGUCAGAUUCUGGUAAAUCUGCGAAUUCUGCUGUAUAUCAC [G8U A28G G55A U80A] | 0.22
UAACAGGUGGCCACAGCAGAAGCGUUCACGUCGCAGCCCCUGUCAGUUCCUGGUGAAUCUGCGAAUUCUGCUGUAUAUCUC [G8U A47U U49C] | 0.06
UAACAGGUGGCCACAGCAGAAGGGCCCACGUCGCAGCCCCUGUCAGAUUCAGGUGAAUCUGCGAAUUCUGCUGUAUAUCUC [G8U C23G U25C U26C U51A] | 0.06
UAACAGGUGGGCACAGCAGAAGCGUUCACGCCGCAGCCCCUGUCAGAUUCUGGCGAAUCUGCGAAUUCUGCUGUAUAUCUC [G8U C11G U31C U54C] | 0.21
UAACAGGUGGCCACAGCAGAAGCGUUCACGUCGCGGCCCCUGUCAGAUUCUGGUGAAUCUGCAGGUUCUGCUGUAUAUCUC [G8U A35G G63A A64G A65G] | 0.07
UAACAGGUGGCCACAGCAGAAGUGUUCACGUCGCAGCCCCUGUCAGAUUCAGGUGAAUCUGCUAAUCCUGCUGUAUAUCUC [G8U C23U U51A G63U U67C] | 0.05
UAACAGGUGGCUACAGCAGAAGCGUUCACGUCGCAGCCCCCGUCAGAUUCUGGUGAAUCAGCGAAUUCUGCUGUAUAUCUC [G8U C12U U41C U60A] | 0.2
UAACAGGUGGCCACAGCAGAAGCGUUCACGUCGCAGUCCCUGUCAGAUUUUGGUGAAUCUGCGAAUUCUGCUGUAUAUCUC [G8U C37U C50U] | 0.26
UAACAGGUGGCCACAGCAGAUGCGUUCACGUCGCAGCCCCUGUCAGAUUCUGGUGAAUCUGCGAAUUCUGCCGUAUAUCUC [G8U A21U U72C] | 0.21
UAACAGGUGGCCACAGCAGAUGCGUUCACGUCGCAGCCCCUGUCAGAUUCUGGUGAAUCUGCGAAUUCUGCAGUAUAUCUC [G8U A21U U72A] | 0.06
UAACAGGUGGCCACAGCAGAAGCGUUAACGCCGCUGUCCCUGUCAGAUUCUGGUGAAUCUGCGACUUCUGCUGUAUAUCUC [G8U C27A U31C A35U C37U A65C] | 0.04
UAACAGGUGGCCACAGCAGAAGCGUUCACGUCGCUGCCCCUGUCAGAUUCCGGUGAAUCUGCGAAUUCUGCUGUAUAUCUC [G8U A35U U51C] | 0.05
UAACAGGUGCCCACAGCAGAAGCGUUCACGUCGCAGCCCCUGUCAGAUUCUGGUGGAUCUGCGAAUCCCGCUGCAUAUCUC [G8U G10C A56G U67C U69C U74C] | 0.06
UAACAGGUGGCCACAGCAGAAGCGUUCACGUCGCGGCCCCUGUCAGAUUCUGGUGAAUCUGCGAAUUCUGCUGUAUUUCAC [G8U A35G A77U U80A] | 0.11
UAACAGGUGGCCACAGCAGAAGUGUUCACGCCGCAGCCCCUGUCAGAUUCCGGUGAAUCUGCGAAUUCUGCUGUAUAUCUC [G8U C23U U31C U51C] | 0.26
UAACAGGUGGCCACAGCAGAAGCGUUCACGUUGCAGCCCCUGUCAGAUUCUGGUGAAUCUGCGAGUUCUGCUGUAUAUCUC [G8U C32U A65G] | 0.14
UAACAGGUGGCCACAGCAGAAGCGUUCACGUCGCCGCCCCUGUCAGAUUCUGGUGAAUCUGCGAAAUCUGCUGUACAUCUC [G8U A35C U66A U76C] | 0.21

Variant | self-cleavage
UAACAGGUGGCCAUAGCAGAAGCGUUCACGACGCGGCCCCUGUCAGAUUCUGGUGAAUCUGCGAAUCCUGCCGUAUAUCUC [G8U C14U U31A A35G U67C U72C] | 0.1
UAACAGGUGGCCACAUCAGAGGCGUUCACGUCGCAGCACCUGUCAGAUUCUGGUGAAUCUGCGAAUUCUGCUGUAUAUCUC [G8U G16U A21G C38A] | 0.35
UAACAGGUGGCCACAGCAGAUGCGUUCACGUCGCAGCCCCUGUCAGAUUCUGGUGAAUCUGCGAACUCUGCUGUAUAUCUC [G8U A21U U66C] | 0.12
UAACAGGUGGCCACAGCAGAUGCGUUCACGUCGCAGCCCCUGUCAGAUUCUGGUGAAUCUGCGAAAUCUGCUGUAUAUCUC [G8U A21U U66A] | 0.12
UAACAGGUGGCCACAGCAGAAGCGUUCACGUCGCAGCCACUGUCAGAUUCUGGCGAAUCUGCGAAUCCUGCUGUAUAUCCC [G8U C39A U54C U67C U80C] | 0.06
UAACAGGUGGCCACAGCAGAAGCGUUCACGUCGCAGCCCCUGUCAGAUUCUGGUGUGUCUGCGAAUUCUGCUGUAUAUCUC [G8U A56U A57G] | 0.12
UAACAGGUGGCCACAGCAGAAGCGUUCACGUCGCAGCCCCUGUCAGGUUCUGGUGGAUCUGCGACUUCUGCUGUAUAUCGC [G8U A47G A56G A65C U80G] | 0.05
UAACAGGUGGCCACAGCAGAUGCGUUCACGUCGCAGCCCCUGUCAGAUUCUGGUGAGUCUGCGAAUUCUGCUGUAUAUCUC [G8U A21U A57G] | 0.12
UAACAGGUGGCAACAGCAGAAGCGUUCACGUCGCAGCCCCUGUCAGAUUCUGGUGAAUAUGCGAAUUCUGCGGUAUAUCUC [G8U C12A C59A U72G] | 0.06
UAACAGGUGGCCACAGCAGAAGCGUUCACGUCGCAGCCCUUGUCAGAUUCUGGUGAAUCUGCGGAUUCUGCUGUAUAUCUC [G8U C40U A64G] | 0.06
UAACAGGUGGCCACAGCAGAAGCGUUCACGUAGCAGCCCCUGUCAGAUUCUGGUGAAUCCGCGAAUUCUGCUGUAUAUCUC [G8U C32A U60C] | 0.06
UAACAGGUGGCCACAGCAGAAGCGUUCACGUCGCAGCCCCUGUCCGAUUCUGGUGAAUCUGCGUAUUCUGCUGUAUAUCAC [G8U A45C A64U U80A] | 0
UAACAGGUGGCCACAGCAGAAGCGUUCACGUCGCGGCCCCUGUCAGAUUCUGGUGAAUCUGCGAAUUCUGCUGCAUAUCCC [G8U A35G U74C U80C] | 0.19
UAACAGGUGGCCACAGCAGAAGCGUUGACGUCGCAGCCCCUGUCAGAUUCUGGAGAAUCUGUGAAUUCUGCUGUAUAUCUC [G8U C27G U54A C62U] | 0.06
UAACAGGUAGCCACAGCAGAAGCGUUCACGUCGCAGCACCUGUCAGAUUCUGGUGAAUCUGCGAAUUCUGCUGUAUAUCUC [G8U G9A C38A] | 0.22
UAACAGGUGGCCACAGCAGAAGCGUUCACGUCGCAGCCCCUGUCGGAUUCUGGUGAAUCUGCGAAUCCUGCUGUAUAUCCC [G8U A45G U67C U80C] | 0.14
UAACAGGUGGCCACAGCAGAAGCGUUCACGUCGCAGCCCCUGUCAGAUUCUGGUGAGUCUGCGUAUUCUGCUGUAUAUCUC [G8U A57G A64U] | 0.06
